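Five compound concentrations were applied to cells in 96-well plates for 48 hours; endpoints were derived by simple linear interpolation of the resulting dose-response curve. GI50 is the concentration that inhibits growth by half. TGI is the concentration that stops growth completely.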 Some results are limits rather than exact numbers.

The assay relates to NCI-H322M lung. The experiment in a line: DTP human tumour cell line panel, 48 h.
As to `Cc1ccc(-c2nnc(SCc3ccc(O)c4ncccc34)n2-c2ccccc2)cc1`, the GI50 is 0.376 µM and the TGI was more than 100 µM.

Consider `COc1ccc(/C=N\NC(=O)c2ccc3nc(-c4ccc(Br)cc4)[nH]c3c2)cc1`, for which the GI50 was 2.99 µM and the TGI came to 10.5 µM.

Take `Brc1ccc2[nH]cc(-c3nn4cc(-c5nccs5)nc4s3)c2c1`: the GI50 was 8.17 µM and the TGI was more than 74 µM.

(Values after PubChem BioAssay (NCI).)
